Measured values published in the supplement of paper PMC8728848.
The list shows a part of the results.

Columns and labels:
[1] = molecular target: Neu5Gc(a2-8)Neu5Gc(a2-6)Gal(b1-4)GlcNAc; test: glycan array binding signal (z-score within array); higher = stronger binding; conditions: glycan notation: IUPAC condensed, linker removed
Procedure, shortened: (§1)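 Columns mapping to the same glycan were averaged after glycan names were converted to IUPAC-condensed notation. The data come from 3228 arrays in the Consortium for Functional Glycomics database, limited to those with an available protein sequence. Binding is reported as a within-array Z-score averaged across arrays of one protein sequence and across linkers.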

[2] = molecular target: Neu5Gc(b2-6)Gal(b1-4)GlcNAc; test: as above; conditions: glycan notation: IUPAC condensed, linker removed
Procedure, shortened: as §1

B1: PX14375F-bfa-539-21-539 (Bacteroides fragilis) (protein)
chain: EDFLQKDPPSSPSQSVFWQKKSDFESALAGTYSVMYSGVFSQIMPCLDGLTDNAIVQHSEGTYGWAKTIAQGDLTPNQGGFVTDIYGNCYKGIARVHILMEQLDQYTGSDISADEKKFMLAQCKALRGYFYSWLYQCYKEVPVVTQSLDLNTMYQPKATRAEVLNRVMTDYDEAISELPDKLYSDSQTSGRFTVSAVKALKARILLFDAYDSNGKAISSKMEEVLTLLQSIKGYSLAARVRDNFISEKQLASPEIMFSVRFLRPNLTHSMDLYYGAWAVLDPTRNMVDAFECTDGKPWGESPLTVRPDESILYGNDDALKKAERAKMFMNRDRRLYESVNHSMMANFVDDGFKDEEVQVNESNNKGPTGFSALKYVQPTDVTPGYSTVSDADIVVLRYAHVLLMIAEAENEAHGATTTALNAINEVRTRSGQPAIEAGISQDDLRERIRNEWRIETCFEGLRYFQLKRWKLMDKRVNGVEDPAYPGYIKVYKPAFEFFPIPQSEIDKAGGVLKQDPAYE
With B1 the “glycan array binding signal (z-score)” value [1] was -0.48 and the “glycan array binding signal (z-score)” value [2] was -0.376.
